Key:
HT29 cells = test: Endocytosis experiment (pHAb dye, flow cytometry); format: cell-based, human; details: 10 μg/ml dye complex, 37° C.
Source text: HT29 cells were resuspended in 6-well plates at approximately 1×10^5 cells per well.

[1] = molecular target: T1, soluble ED protein (c-Met) (Homo sapiens, UniProt P08581); test: ELISA affinity comparison of chimeric cAAJ8D6 and humanized AAJ8D6; format: binding; details: plate coated with soluble ED protein
T1 construct: A 96-well plate was coated with soluble ED protein and then incubated with diluted antibodies
Description: The affinities of chimeric cAAJ8D6 and the humanized antibody AAJ8D6 were determined by ELISA. A 96-well plate was coated with soluble ED protein and then incubated with diluted antibodies. ED-related antibodies were detected with an HRP-conjugated goat F(ab′)2 anti-human IgG Fc-specific secondary antibody.

[2] = tested on: human gastric cancer cell MKN-45 subcutaneously transplanted tumors; test: MKN-45 subcutaneously transplanted tumor in Balb/c nude mice; format: in vivo; details: 3 mg/kg i.v. once a week x3
Description: 42 Balb/c nude mice aged 6-7 weeks were taken, and 0.1 mL of MKN-45 cell suspension (2.4×10^6 cells/mouse) was subcutaneously implanted in the back of the right armpit of the mice. […] Each group was administered intravenously, once a week, for a total of 3 times, and measured for long diameter and short diameter of tumor and body weight twice a week during the administration. On Day 21 after administration, the tumor inhibition rate (TGIRTV) was calculated for efficacy evaluation.
Tumor volume: TV=D1×D2^2/2, where D1 and D2 represent the long diameter and the short diameter of the tumor, respectively;
Relative tumor volume: RTV=TVn/TV0, where TV0 is the tumor volume before administration, and TVn is the tumor volume at each measurement;
Relative tumor inhibition rate: TGIRTV(%)=(1-TRTV/CRTV) 100%, TRTV means RTV of drug administration group or positive control group, and CRTV means RTV of negative control group.

c-Met protein = c-Met protein (Homo sapiens, UniProt P08581); test: ELISA binding ability to c-Met antigen; details: c-Met protein coated at 2 μg/ml
Description: The c-Met protein was prepared with a diluent to a final concentration of 2 μg/ml, and added to a microplate at 100 μl per well, overnight at 4° C. The solution in the well was discarded, and the plate was washed three times with PBST. The plate was added with a blocking solution at 300 μl/well and incubated at 37° C. for 2 h. The solution in the well was discarded, and the plate was washed three times with PBST. AAJ8D6 antibody and ABT-700 (i.e., telisotuzumab, its sequence information can be found at https://extranet.who.int/soinn/mod/page/view.php?id=137&inn n=10366, the same below) were diluted to 9 concentrations, added to the 96-well plate and incubated for 2 h. The solution in the well was discarded, and the plate was washed three times with PBST. HRP detection antibody was prepared by adding diluent at a dilution of 1:5000, added at 100 μl per well, and incubated at 37° C. for 1 h. The solution in the well was discarded, and the plate was washed three times with PB ST. The plate was added with TMB color developing solution, incubated at room temperature for 2 min, and then added with Elisa stop solution.

[3] = tested on: lung cancer LU2503 PDX tumor; test: Mouse PDX model of lung cancer LU2503; format: in vivo, mice; details: 10 mg/kg i.v. once a week x2
Source text: The mouse PDX (patient-derived xenograft) model of lung cancer LU2503 was constructed by transplanting tumor tissue from human patients with lung cancer into severely immunodeficient mice, in which the gastric cancer tissue grew to form a transplanted tumor.
The tumor-bearing mice with good tumor growth were picked and euthanized, and the tumors were removed and cut into small pieces (2-3 mm in diameter), which were then inoculated on the right shoulder of the mice to establish a subcutaneous lung cancer model. […] The long diameter and short diameter of tumor and body weight were measured twice a week during the administration. On Day 21 after administration, the tumor inhibition rate (TGIRTV) was calculated for efficacy evaluation.
Calculation formula: • Tumor volume: TV=D1×D2^2/2, where D1 and D2 represent the long diameter and the short diameter of the tumor, respectively; • Relative tumor volume: RTV=TVn/TV0, where TV0 is the tumor volume before administration, and TVn is the tumor volume at each measurement; • Relative tumor inhibition rate: TGIRTV(%)=(1-TRTV/CRTV) 100%, TRTV means RTV of drug administration group or positive control group, and CRTV means RTV of negative control group.

[4] = tested on: MKN-45, SNU-620, HT29, BXPC-3 cells; test: Cytotoxic activity, CCK-8, cells with different c-Met expression levels; format: cell-based, human; details: 72±2 h, 1.25-2000 ng/mL
Description: Cells MKN-45, SNU-620, HT29, and BXPC-3 with different c-Met expression levels in exponential doubling phase were seeded in 96-well plates, respectively, and incubated overnight in a 37° C., 5% CO2 incubator. […] They were added to the plate at 100 μL per well with triplicate wells set up for each concentration, and a blank control group was set as well. After 72±2 h of drug action, the plate was added with CCK-8 reagent, incubated at 37° C., 5% CO2 incubator for 1 to 4 h, and detected for OD value of each well at 450 nm of a microplate reader. […] Four-parameter fitting was performed on the inhibition rate and drug concentration to calculate IC50.

Sequence of c-Met protein (P08581 25-1390): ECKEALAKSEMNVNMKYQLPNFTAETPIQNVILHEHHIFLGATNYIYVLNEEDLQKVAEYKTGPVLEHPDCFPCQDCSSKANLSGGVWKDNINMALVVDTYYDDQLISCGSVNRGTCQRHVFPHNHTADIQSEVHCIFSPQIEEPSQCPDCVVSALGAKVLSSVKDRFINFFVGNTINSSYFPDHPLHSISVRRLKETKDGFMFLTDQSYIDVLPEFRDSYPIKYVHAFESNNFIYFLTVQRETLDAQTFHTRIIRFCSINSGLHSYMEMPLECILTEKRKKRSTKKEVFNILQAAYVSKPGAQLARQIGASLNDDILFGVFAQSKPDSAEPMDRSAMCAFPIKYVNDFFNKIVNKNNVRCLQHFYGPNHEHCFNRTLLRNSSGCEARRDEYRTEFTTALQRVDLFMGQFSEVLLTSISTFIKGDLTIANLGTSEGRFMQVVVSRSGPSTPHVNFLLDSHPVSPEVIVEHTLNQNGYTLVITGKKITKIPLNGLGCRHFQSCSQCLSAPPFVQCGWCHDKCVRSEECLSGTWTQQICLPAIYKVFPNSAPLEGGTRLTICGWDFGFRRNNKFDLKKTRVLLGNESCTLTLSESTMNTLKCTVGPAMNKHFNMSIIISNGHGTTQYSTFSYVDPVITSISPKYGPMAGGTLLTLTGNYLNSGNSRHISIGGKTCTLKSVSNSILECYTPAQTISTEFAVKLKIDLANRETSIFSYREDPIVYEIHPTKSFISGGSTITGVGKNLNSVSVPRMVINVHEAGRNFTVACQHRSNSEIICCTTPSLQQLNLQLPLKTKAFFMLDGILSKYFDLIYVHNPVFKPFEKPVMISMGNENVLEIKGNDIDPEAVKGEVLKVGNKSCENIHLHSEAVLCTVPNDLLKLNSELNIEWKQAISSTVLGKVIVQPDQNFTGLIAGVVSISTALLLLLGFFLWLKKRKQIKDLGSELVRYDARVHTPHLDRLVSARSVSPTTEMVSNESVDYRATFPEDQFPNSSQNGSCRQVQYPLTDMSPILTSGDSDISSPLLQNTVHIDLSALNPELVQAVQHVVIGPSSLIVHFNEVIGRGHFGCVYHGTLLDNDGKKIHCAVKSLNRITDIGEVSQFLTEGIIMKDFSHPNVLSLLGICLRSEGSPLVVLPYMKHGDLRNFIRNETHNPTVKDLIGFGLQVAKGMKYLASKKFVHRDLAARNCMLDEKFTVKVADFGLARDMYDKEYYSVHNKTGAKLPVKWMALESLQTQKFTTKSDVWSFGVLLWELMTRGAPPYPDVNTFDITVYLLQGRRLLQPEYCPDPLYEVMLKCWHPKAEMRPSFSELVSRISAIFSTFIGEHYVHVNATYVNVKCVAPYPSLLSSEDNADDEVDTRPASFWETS
T1 sequence (P08581 25-932 limits assumed): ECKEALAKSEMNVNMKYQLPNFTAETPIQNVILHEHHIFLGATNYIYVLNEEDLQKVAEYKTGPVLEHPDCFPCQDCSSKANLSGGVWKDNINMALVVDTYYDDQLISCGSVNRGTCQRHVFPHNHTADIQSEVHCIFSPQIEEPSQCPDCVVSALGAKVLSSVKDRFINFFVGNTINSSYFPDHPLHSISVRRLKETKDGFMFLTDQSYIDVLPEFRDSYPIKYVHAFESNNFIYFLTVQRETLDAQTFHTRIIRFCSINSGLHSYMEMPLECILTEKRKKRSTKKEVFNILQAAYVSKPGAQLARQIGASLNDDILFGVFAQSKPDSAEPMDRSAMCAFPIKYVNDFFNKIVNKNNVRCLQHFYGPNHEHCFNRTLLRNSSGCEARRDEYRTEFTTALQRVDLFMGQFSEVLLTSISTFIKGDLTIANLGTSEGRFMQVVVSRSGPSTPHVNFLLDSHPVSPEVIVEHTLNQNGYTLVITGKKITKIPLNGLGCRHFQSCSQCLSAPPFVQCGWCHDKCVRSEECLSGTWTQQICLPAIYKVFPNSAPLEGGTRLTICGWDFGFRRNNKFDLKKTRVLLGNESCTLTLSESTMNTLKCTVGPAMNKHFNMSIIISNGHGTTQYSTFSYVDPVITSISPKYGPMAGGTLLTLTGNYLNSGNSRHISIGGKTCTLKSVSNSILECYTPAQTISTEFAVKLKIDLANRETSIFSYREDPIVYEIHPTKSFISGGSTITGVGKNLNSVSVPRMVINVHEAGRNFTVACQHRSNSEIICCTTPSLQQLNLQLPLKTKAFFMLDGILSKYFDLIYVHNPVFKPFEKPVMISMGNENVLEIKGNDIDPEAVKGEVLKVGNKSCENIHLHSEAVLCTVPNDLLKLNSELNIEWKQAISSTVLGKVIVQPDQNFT

B1: AAJ8D6: humanized monoclonal antibody targeting c-Met; heavy chain SEQ ID NO: 9, light chain SEQ ID NO: 10 (antibody)
heavy: QVQLEQSGPEVVKPGASVKVSCKASGYSFTSYWMHWVRQAPGQGLEWMGMIDPSDSESRLNQKFKDRVTMTVDTPTSTVYMELSSPRSEDTAVYYCARSGYHGTSYWYFDVWGQGTLVTVSS[human IgG1 constant region not given here]
light: DIVMTQSPLSLPVTPGEPASISCRSSKSLLHSDGITYLYWYLQKPGQSPQLLIYQMSNLASGVPDRFSGSGSGTDFTLKISRVEAEDVGVYYCAQNLELPPTFGGGTKVEIKRTVAAPSVFIFPPSDEQLKSGTASVVCLLNNFYPREAKVQWKVDNALQSGNSQESVTEQDSKDSTYSLSSTLTLSKADYEKHKVYACEVTHQGLSSPVTKSFNRGEC
modifications: The sequence is synthesized
HT29 cells; after 3 h
  endocytosis effect: about 90%
HT29 cells; after 24 h
  endocytosis in HT29 cells: significantly endocytosed
[1]
  EC50: 3.529 ng/mL
[2]; D 0 (before administration)
  TV (mm^3) D 0: 200 ± 24 mm^3
[2]; D 21
  TV (mm^3) D 21: 1633 ± 77 mm^3
[2]; Day 21
  TGIRTV %: −15%
c-Met protein
  EC50: 0.54 ng/mL
[3]; Day 0
  Tumor volume (mm^3) TVD0: 157.05 ± 9.21 mm^3
[3]; Day 21
  Inhibition rate (%): 37.60%
  Tumor volume (mm^3) TVD21: 1165.02 ± 163.71 mm^3
[4]
  cytotoxic activity / cytotoxic effect on target cells: no cytotoxic effect

Source: US12528870B2, “Anti-c-Met antibody-drug conjugate and applications thereof” (REMEGEN CO., LTD., priority 2020, dated 2026)
